Experimental data taken from the antibiotic and cytotoxicity screens of Wong et al. (2023).
The other results are listed elsewhere or left out.

Each compound was assayed on HepG2 (assay: cytotoxicity call (relative viability < 0.9)). Conditions: 10 µM.

With `CC(=O)OC1(C(C)=O)CCC2C3C=C(Cl)C4=CC(=O)C5CC5C4(C)C3CCC21C` (stereo not drawn) as the compound, how does the cytotoxicity call read?
The cytotoxicity call was “inactive”.

With `C[C@H]1CN([C@@H](C)CO)C(=O)c2cc(C#CCN(C)C)cnc2O[C@H]1CN(C)C(=O)Nc1cccc(F)c1` as the compound, how does the cytotoxicity call read?
The cytotoxicity call was “inactive”.

`C[C@@H]1CN([C@H](C)CO)C(=O)c2cc(C#Cc3cccc(F)c3)cnc2O[C@H]1CN(C)Cc1ccccn1` was tested. Which cytotoxicity call did it give?
The cytotoxicity call was “inactive”.

Which cytotoxicity call does the source give for `C[C@H]1CN([C@@H](C)CO)S(=O)(=O)c2ccc(-c3cccc(F)c3)cc2O[C@@H]1CN(C)S(C)(=O)=O` here?
The cytotoxicity call was “inactive”.

For `C[C@@H]1CN([C@@H](C)CO)C(=O)Cc2cc(NC(=O)Nc3cccc4ccccc34)ccc2O[C@@H]1CN(C)C(=O)Nc1ccc(F)cc1`, which cytotoxicity call is on record?
The cytotoxicity call was “inactive”.

Which cytotoxicity call does the source give for `COc1ccc(S(=O)(=O)N(C)C[C@H]2OCCCC[C@H](C)Oc3ccc(NC(=O)NC4CCCCC4)cc3C(=O)N([C@H](C)CO)C[C@H]2C)cc1` here?
Its cytotoxicity call is “inactive”.

How did the cytotoxicity call turn out when `CN(C)c1cnccn1.O=S(=O)(O)O` was run?
The cytotoxicity call was “inactive”.

`Cc1noc(C)c1S(=O)(=O)N(C)C[C@@H]1Oc2ccc(NC(=O)Cc3cn(C)c4ccccc34)cc2CC(=O)N([C@H](C)CO)C[C@@H]1C` was tested. Which cytotoxicity call did it give?
The cytotoxicity call was “inactive”.

Which cytotoxicity call does the source give for `COc1ccc(S(=O)(=O)Nc2cccc3c2O[C@@H](CN(C)Cc2ccncc2)[C@@H](C)CN([C@H](C)CO)C3=O)cc1` here?
Its cytotoxicity call is “inactive”.

`Fc1ccc(-n2cccc2)c(F)c1` was tested. Which cytotoxicity call did it give?
The cytotoxicity call was “inactive”.

For `CCS(=O)(=O)N1CCCn2c(nc(Cn3cncn3)cc2=O)C1`, which cytotoxicity call is on record?
Its cytotoxicity call is “inactive”.

Which cytotoxicity call does the source give for `C[C@@H]1CN([C@@H](C)CO)C(=O)Cc2cc(NC(=O)Cn3cnnn3)ccc2O[C@H]1CN(C)Cc1ccncc1` here?
Its cytotoxicity call is “inactive”.

Which cytotoxicity call does the source give for `C[C@@H]1CCCCO[C@@H](CN(C)C(=O)Nc2ccc(F)cc2)[C@H](C)CN([C@@H](C)CO)C(=O)c2cc(NC(=O)Nc3ccc(F)cc3)ccc2O1` here?
Its cytotoxicity call is “inactive”.

`Cc1cc(C)c2nc(-c3ccccn3)cc(C(=O)Nc3ccc(S(=O)(=O)Nc4onc(C)c4C)cc3)c2c1` was tested. Which cytotoxicity call did it give?
Its cytotoxicity call is “inactive”.

For `C[C@@H]1CN([C@@H](C)CO)C(=O)c2cc(NC(=O)Nc3ccc(C(F)(F)F)cc3)ccc2O[C@@H](C)CCCCO[C@H]1CN(C)S(=O)(=O)c1cccs1`, which cytotoxicity call is on record?
The cytotoxicity call was “inactive”.

How did the cytotoxicity call turn out when `C[C@@H]1CCCCO[C@H](CN(C)Cc2ccncc2)[C@H](C)CN([C@H](C)CO)C(=O)c2cc(NC(=O)C3CCCCC3)ccc2O1` was run?
The cytotoxicity call was “inactive”.

For `C[C@H]1CN([C@@H](C)CO)C(=O)c2cc(C#CC3(O)CCCC3)cnc2O[C@H]1CN(C)S(=O)(=O)c1cccc(F)c1`, which cytotoxicity call is on record?
Its cytotoxicity call is “inactive”.

Which cytotoxicity call does the source give for `C[C@H](CO)N1C[C@H](C)[C@H](CN(C)C(=O)Nc2ccc(N3CCN(C)CC3)cc2)OCc2cnnn2CCCC1=O` here?
The cytotoxicity call was “inactive”.

How did the cytotoxicity call turn out when `O=C1c2ccccc2[C@@]2(Cc3ccccc3N(CC(F)(F)F)C2=O)[C@H](c2ccc(CO)cc2)N1C1CCCCC1` was run?
The cytotoxicity call was “inactive”.

How did the cytotoxicity call turn out when `C[C@@H]1CN([C@H](C)CO)C(=O)c2cc(NC(=O)NC3CCCCC3)ccc2O[C@@H](C)CCCCO[C@H]1CN(C)C(=O)c1ccncc1` was run?
The cytotoxicity call was “inactive”.

`CCNC(=O)c1sc(C)nc1N` was tested. Which cytotoxicity call did it give?
The cytotoxicity call was “active”.

For `CC(C)(C)OC(=O)C[C@H]1CC=CC[C@H](CC(=O)NCCO)C(=O)N[C@H](Cc2ccccc2)COC1=O`, which cytotoxicity call is on record?
Its cytotoxicity call is “inactive”.

For `O=C(O)CNC(=O)c1ccc(S(=O)(=O)N2CCOCC2)cc1`, which cytotoxicity call is on record?
Its cytotoxicity call is “inactive”.

With `COC(=O)C1=CO[C@@H](O[C@@H]2O[C@H](CO)[C@@H](O)[C@H](O)[C@H]2O)[C@@H]2[C@@H](C)[C@@H](O)C[C@H]12` as the compound, how does the cytotoxicity call read?
The cytotoxicity call was “inactive”.

`COc1ccc(S(=O)(=O)Nc2ccc3c(c2)C(=O)N([C@H](C)CO)C[C@H](C)[C@H](CN(C)C(=O)Nc2cccc4ccccc24)O3)cc1` was tested. Which cytotoxicity call did it give?
Its cytotoxicity call is “inactive”.

`COc1ccc(NC(=O)N(C)C[C@@H]2Oc3ncc(C#CCN(C)C)cc3C(=O)N([C@H](C)CO)C[C@H]2C)cc1` was tested. Which cytotoxicity call did it give?
The cytotoxicity call was “inactive”.

How did the cytotoxicity call turn out when `CC1(C)CC(=O)C=C(NCC(=O)O)C1` was run?
The cytotoxicity call was “inactive”.

Which cytotoxicity call does the source give for `CN1CCC(=C2c3ccccc3Sc3ccccc32)CC1.O=C(O)C=CC(=O)O` here?
Its cytotoxicity call is “active”.

These compounds were tested on S. aureus RN4220 (assay: growth inhibition call (relative growth <= 0.2)). Conditions: 50 µM.

With `C[C@H](CO)N1C[C@H](C)[C@@H](CN(C)Cc2ccc(-c3ccccc3)cc2)Oc2ccc(NC(=O)Nc3ccc4c(c3)OCO4)cc2C1=O` as the compound, how does the growth inhibition call read?
The growth inhibition call was “inactive”.

How did the growth inhibition call turn out when `C[C@@H]1CCCCO[C@@H](CN(C)C(=O)CCC(F)(F)F)[C@@H](C)CN([C@@H](C)CO)C(=O)c2cc(NC(=O)CCC(F)(F)F)ccc2O1` was run?
The growth inhibition call was “inactive”.

`O=C(C[C@@H]1CC=CCCC(=O)OCCNC1=O)NCCO` was tested. Which growth inhibition call did it give?
Its growth inhibition call is “inactive”.

For `O=C(O)C(S)C(S)C(=O)O` (stereo not drawn), which growth inhibition call is on record?
The growth inhibition call was “inactive”.

How did the growth inhibition call turn out when `C[C@@H]1CN([C@@H](C)CO)C(=O)Cc2cc(NC(=O)CCCN(C)C)ccc2O[C@@H]1CN(C)S(=O)(=O)c1ccc(F)cc1` was run?
Its growth inhibition call is “inactive”.

For `C[C@@H]1CCCCO[C@H](CN(C)Cc2ccc(Cl)c(Cl)c2)[C@@H](C)CN([C@H](C)CO)C(=O)c2cc(NC(=O)c3ccncc3)ccc2O1`, which growth inhibition call is on record?
Its growth inhibition call is “inactive”.

Which growth inhibition call does the source give for `Cc1noc(C)c1S(=O)(=O)N(C)C[C@@H]1OCCCC[C@@H](C)Oc2ccc(NC(=O)Nc3ccc(C(F)(F)F)cc3)cc2C(=O)N([C@H](C)CO)C[C@@H]1C` here?
Its growth inhibition call is “inactive”.

With `N#Cc1ccc(-c2cccs2)nc1` as the compound, how does the growth inhibition call read?
The growth inhibition call was “inactive”.

For `CC(C)NC(=O)N(C)C[C@H]1OCCCC[C@@H](C)Oc2ccc(NC(=O)Nc3ccccc3)cc2C(=O)N([C@@H](C)CO)C[C@H]1C`, which growth inhibition call is on record?
The growth inhibition call was “inactive”.

With `C[C@@H]1CN([C@H](C)CO)C(=O)Cc2cc(NC(=O)Nc3ccc(F)cc3)ccc2O[C@@H]1CN(C)Cc1ccc(C(F)(F)F)cc1` as the compound, how does the growth inhibition call read?
Its growth inhibition call is “inactive”.

For `COc1ccc(NC(=O)N(C)C[C@@H]2Oc3ncc(C#CCN(C)C)cc3C(=O)N([C@@H](C)CO)C[C@H]2C)cc1`, which growth inhibition call is on record?
Its growth inhibition call is “inactive”.

For `CC(C)NC(=O)N(C)C[C@H]1OCCCC[C@@H](C)Oc2ccc(NS(C)(=O)=O)cc2C(=O)N([C@@H](C)CO)C[C@@H]1C`, which growth inhibition call is on record?
Its growth inhibition call is “inactive”.

`CC(=O)OC1(C(C)=O)CCC2C3C=C(Cl)C4=CC(=O)C5CC5C4(C)C3CCC21C` (stereo not drawn) was tested. Which growth inhibition call did it give?
Its growth inhibition call is “inactive”.

`C[C@H]1CN([C@@H](C)CO)C(=O)c2cc(C#CCN(C)C)cnc2O[C@H]1CN(C)C(=O)Nc1cccc(F)c1` was tested. Which growth inhibition call did it give?
Its growth inhibition call is “inactive”.

With `C[C@@H]1CN([C@H](C)CO)C(=O)c2cc(C#Cc3cccc(F)c3)cnc2O[C@H]1CN(C)Cc1ccccn1` as the compound, how does the growth inhibition call read?
The growth inhibition call was “inactive”.

For `C[C@H]1CN([C@@H](C)CO)S(=O)(=O)c2ccc(-c3cccc(F)c3)cc2O[C@@H]1CN(C)S(C)(=O)=O`, which growth inhibition call is on record?
Its growth inhibition call is “inactive”.

Which growth inhibition call does the source give for `C[C@@H]1CN([C@@H](C)CO)C(=O)Cc2cc(NC(=O)Nc3cccc4ccccc34)ccc2O[C@@H]1CN(C)C(=O)Nc1ccc(F)cc1` here?
Its growth inhibition call is “inactive”.

`COc1ccc(S(=O)(=O)N(C)C[C@H]2OCCCC[C@H](C)Oc3ccc(NC(=O)NC4CCCCC4)cc3C(=O)N([C@H](C)CO)C[C@H]2C)cc1` was tested. Which growth inhibition call did it give?
The growth inhibition call was “inactive”.

How did the growth inhibition call turn out when `CN(C)c1cnccn1.O=S(=O)(O)O` was run?
Its growth inhibition call is “inactive”.

With `Cc1noc(C)c1S(=O)(=O)N(C)C[C@@H]1Oc2ccc(NC(=O)Cc3cn(C)c4ccccc34)cc2CC(=O)N([C@H](C)CO)C[C@@H]1C` as the compound, how does the growth inhibition call read?
The growth inhibition call was “inactive”.

For `COc1ccc(S(=O)(=O)Nc2cccc3c2O[C@@H](CN(C)Cc2ccncc2)[C@@H](C)CN([C@H](C)CO)C3=O)cc1`, which growth inhibition call is on record?
The growth inhibition call was “inactive”.

`Fc1ccc(-n2cccc2)c(F)c1` was tested. Which growth inhibition call did it give?
The growth inhibition call was “inactive”.

Which growth inhibition call does the source give for `CCS(=O)(=O)N1CCCn2c(nc(Cn3cncn3)cc2=O)C1` here?
Its growth inhibition call is “inactive”.

For `C[C@@H]1CN([C@@H](C)CO)C(=O)Cc2cc(NC(=O)Cn3cnnn3)ccc2O[C@H]1CN(C)Cc1ccncc1`, which growth inhibition call is on record?
The growth inhibition call was “inactive”.

With `C[C@@H]1CCCCO[C@@H](CN(C)C(=O)Nc2ccc(F)cc2)[C@H](C)CN([C@@H](C)CO)C(=O)c2cc(NC(=O)Nc3ccc(F)cc3)ccc2O1` as the compound, how does the growth inhibition call read?
The growth inhibition call was “inactive”.

For `Cc1cc(C)c2nc(-c3ccccn3)cc(C(=O)Nc3ccc(S(=O)(=O)Nc4onc(C)c4C)cc3)c2c1`, which growth inhibition call is on record?
Its growth inhibition call is “inactive”.

Which growth inhibition call does the source give for `C[C@@H]1CN([C@@H](C)CO)C(=O)c2cc(NC(=O)Nc3ccc(C(F)(F)F)cc3)ccc2O[C@@H](C)CCCCO[C@H]1CN(C)S(=O)(=O)c1cccs1` here?
Its growth inhibition call is “inactive”.

`C[C@@H]1CCCCO[C@H](CN(C)Cc2ccncc2)[C@H](C)CN([C@H](C)CO)C(=O)c2cc(NC(=O)C3CCCCC3)ccc2O1` was tested. Which growth inhibition call did it give?
Its growth inhibition call is “inactive”.

For `C[C@H]1CN([C@@H](C)CO)C(=O)c2cc(C#CC3(O)CCCC3)cnc2O[C@H]1CN(C)S(=O)(=O)c1cccc(F)c1`, which growth inhibition call is on record?
The growth inhibition call was “inactive”.

For `C[C@H](CO)N1C[C@H](C)[C@H](CN(C)C(=O)Nc2ccc(N3CCN(C)CC3)cc2)OCc2cnnn2CCCC1=O`, which growth inhibition call is on record?
Its growth inhibition call is “inactive”.

With `O=C1c2ccccc2[C@@]2(Cc3ccccc3N(CC(F)(F)F)C2=O)[C@H](c2ccc(CO)cc2)N1C1CCCCC1` as the compound, how does the growth inhibition call read?
Its growth inhibition call is “inactive”.

How did the growth inhibition call turn out when `C[C@@H]1CN([C@H](C)CO)C(=O)c2cc(NC(=O)NC3CCCCC3)ccc2O[C@@H](C)CCCCO[C@H]1CN(C)C(=O)c1ccncc1` was run?
The growth inhibition call was “inactive”.

How did the growth inhibition call turn out when `CCNC(=O)c1sc(C)nc1N` was run?
Its growth inhibition call is “inactive”.

How did the growth inhibition call turn out when `CC(C)(C)OC(=O)C[C@H]1CC=CC[C@H](CC(=O)NCCO)C(=O)N[C@H](Cc2ccccc2)COC1=O` was run?
The growth inhibition call was “inactive”.

With `O=C(O)CNC(=O)c1ccc(S(=O)(=O)N2CCOCC2)cc1` as the compound, how does the growth inhibition call read?
The growth inhibition call was “inactive”.

How did the growth inhibition call turn out when `COC(=O)C1=CO[C@@H](O[C@@H]2O[C@H](CO)[C@@H](O)[C@H](O)[C@H]2O)[C@@H]2[C@@H](C)[C@@H](O)C[C@H]12` was run?
Its growth inhibition call is “inactive”.

With `COc1ccc(S(=O)(=O)Nc2ccc3c(c2)C(=O)N([C@H](C)CO)C[C@H](C)[C@H](CN(C)C(=O)Nc2cccc4ccccc24)O3)cc1` as the compound, how does the growth inhibition call read?
Its growth inhibition call is “inactive”.

For `COc1ccc(NC(=O)N(C)C[C@@H]2Oc3ncc(C#CCN(C)C)cc3C(=O)N([C@H](C)CO)C[C@H]2C)cc1`, which growth inhibition call is on record?
Its growth inhibition call is “inactive”.

For `CC1(C)CC(=O)C=C(NCC(=O)O)C1`, which growth inhibition call is on record?
Its growth inhibition call is “inactive”.

For `CN1CCC(=C2c3ccccc3Sc3ccccc32)CC1.O=C(O)C=CC(=O)O`, which growth inhibition call is on record?
The growth inhibition call was “inactive”.
